Consider 48 compounds from PubChem BioAssay AID1508624 (National Center for Advancing Translational Sciences (NCATS), 2021).

Among all 48,000 compounds or so, about 120 (0.25%) were called active. Inconclusive results (about 4%) are left out. The call rests on the fitted dose curve; in most records, active means well fitted activation curve with a large enough effect; inconclusive means small, poorly fitted or top-dose-only effect, or another doubt; inactive means no such curve, though single readings can be large or run the other way. Some of the results follow.

The assay in a line: Primary qHTS for Identification of Small Molecule Activators of Huntingtin-Antisense Promoter Activity. Further: nearly all actives have a fitted effect of over 55% in size. As to conditions: HEK293 HTT-AS promoter firefly luciferase reporter (activity 0% = vehicle and -100% = no light), 24 h; series mostly up to 57.5 µM; activity change, positive = activation: at the top concentration. Put shortly:
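Luminescence was read after Dual-Glo reagent and a 10 min room-temperature incubation. Values were normalized to vehicle (0% activity) and zero RLU (-100% activity). Reporter HEK293 cells had been exposed to compounds (up to 57.5 uM final) for 24 h.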
For orientation: In qHTS, concentration-response curves come from the screen itself.
Consider `Cc1ccc(NC(=O)C2CCCN2S(=O)(=O)c2ccc3c(c2)C(C)(C)C(=O)N3C)cc1` (stereo not drawn), for which the “activity change, positive = activation” value was inactive: -29.7%.
Consider `Cc1cccc(N2CCN(C(=O)Cn3ncc4c([nH]c5ccccc54)c3=O)CC2C)c1` (stereo not drawn), for which the “activity change, positive = activation” value is inactive: -3.34%.
To `Cn1cnc(S(=O)(=O)N2CCCC(C(=O)NCc3ccccc3)C2)c1` (stereo not drawn) belongs inactive: -3.87%.
Take `COc1ccc(-c2cc(C)no2)cc1S(=O)(=O)NC1CCC(C)CC1` (stereo not drawn): the “activity change, positive = activation” value is inactive: -19.8%.
In the case of `CCOc1ccc(NC(=O)c2cc(C)nc3c2c(C)nn3-c2cccc(F)c2)cc1` it was inactive: -10.6%; in that of `CC1(C(=O)NC2CCCCC2)Cc2ccccc2C(=O)N1Cc1ccc(F)cc1` (stereo not drawn), inactive: -15.4%; in that of `Cc1ccc(S(=O)(=O)c2nc(-c3ccco3)oc2SCc2ccc(F)cc2)cc1`, inactive: -22.1%.
For `Cc1c(OCC(F)(F)F)ccnc1CS(=O)c1nc2ccccc2[nH]1` (stereo not drawn), the “activity change, positive = activation” value was inactive: -0.17%.
For the compound `CCOc1ccc(-n2ccnc2SCC(=O)Nc2ccc3c(c2)OCO3)cc1`, the “activity change, positive = activation” value was inactive: -33.3%.
In the case of `O=C(CSc1nc2ccccc2nc1Cc1ccccc1)Nc1ccccc1C(F)(F)F`, the “activity change, positive = activation” value is inactive: -21%.
As to `COc1ccc(S(=O)(=O)NCCc2sc3nc(-c4ccc(C)cc4)nn3c2C)cc1F`, the “activity change, positive = activation” value was inactive: -31.3%.
For `O=C(NCCS(=O)(=O)N1CCN(c2ccccc2F)CC1)C1CC(=O)N(c2ccccc2)C1` (stereo not drawn), the “activity change, positive = activation” value is inactive: 6.97%.
`CCOc1ccc(CNC(=O)c2cnc3sc(N(CC)CC)nn3c2=O)cc1`: the “activity change, positive = activation” value was inactive: -9.52%.
Take `COc1cccc(NC(=O)c2c(N3CCCC3=O)c3cc(C)ccc3n2C)c1`: the “activity change, positive = activation” value was inactive: -32.9%.
For `Nc1nc(F)nc2c1ncn2[C@@H]1O[C@H](CO)[C@@H](O)[C@@H]1O`, the activity change, positive = activation result was “inactive”.
For the compound `COc1ccc(OC)c(NC(=O)Cn2c(=O)n(Cc3nc(C)no3)c(=O)c3ccccc32)c1`, the “activity change, positive = activation” value is inactive: -11.3%.
Turning to `COc1ccc(Cl)cc1NC(=O)NCCc1c(C)nn(C)c1C`, the “activity change, positive = activation” value was inactive: 6.16%.
For the compound `CCc1cccc(C)c1NC(=O)c1ccc2c(c1)CCN2S(=O)(=O)CC`, the “activity change, positive = activation” value is inactive: -30.6%.
Turning to `O=C(CSC1=Nc2ccccc2N=C(c2ccc(F)cc2)C1)Nc1ccc(Cl)cc1`, the “activity change, positive = activation” value is inactive: -9.08%.
With `CC(=O)Nc1ccc(NC(=O)c2cc(-c3cccs3)on2)cc1`, the “activity change, positive = activation” value is inactive: -0.941%.
On to `Cc1ccc(Sc2c(C)nn(C(=O)c3ccc(Br)cc3)c2C)cc1`, for which the “activity change, positive = activation” value is inactive: -20.7%.
For the compound `COc1ccc(Nc2ncnc3onc(C)c23)c(OC)c1`, the “activity change, positive = activation” value is inactive: -13.5%.
As for `COc1ccccc1CNS(=O)(=O)c1ccc2c(c1)CC(C)N2C(=O)C1CCC1` (stereo not drawn), the “activity change, positive = activation” value was inactive: 0%.
On to `CC(C)(C)c1nnc(NS(=O)(=O)c2ccc(N)cc2)s1`, for which the “activity change, positive = activation” value was inactive: -19.3%.
For the compound `COc1ccc(N2CCN(C(=O)C(C)n3c(=O)cc(C(F)(F)F)c4c(C)nn(C)c43)CC2)cc1` (stereo not drawn), the “activity change, positive = activation” value was inactive: -9.43%.
Consider `CCC(C)NC(=O)Cc1ccc(NC(=O)N2CCCCc3ccccc32)cc1` (stereo not drawn), for which the “activity change, positive = activation” value is inactive: -16.3%.
With `Cc1cc(C)cc(OCc2cc(=O)n3c4c(sc3n2)CCCC4)c1`, the “activity change, positive = activation” value is inactive: -7.59%.
Consider `Cc1ccc(-n2c(=O)c3oc4ccccc4c3n(CC(=O)Nc3ccc(F)c(Cl)c3)c2=O)cc1C`, for which the “activity change, positive = activation” value is inactive: -6.88%.
Turning to `N#Cc1ccccc1NC(=O)C(=O)NCC(c1ccc2c(c1)OCO2)N1CCOCC1` (stereo not drawn), the “activity change, positive = activation” value was inactive: -7.96%.
Regarding `O=C(CS(=O)(=O)c1cccc2nsnc12)Nc1ccc(F)cc1F`, the “activity change, positive = activation” value is inactive: -0.52%.
In the case of `CC(C)CCNC(=O)c1c2c(nc3ccccc13)C(=O)N(C1CCCCC1)C2` it was inactive: -4.87%; in that of `CC(=O)N1CCOc2cc(S(=O)(=O)Nc3c(C)cccc3C(C)C)c(Cl)cc21`, inactive: -27.5%; in that of `O=C(Nc1ccccc1F)C1CCN(S(=O)(=O)c2ccc3c(c2)CCCN3C(=O)C2CCC2)CC1`, inactive: -22.3%.
On to `CCCCN(C)C(=O)c1ccc2c(c1)N(Cc1ccc(F)cc1)C(=O)c1ccccc1S2(=O)=O`, for which the “activity change, positive = activation” value is inactive: -34.5%.
To `Cc1ccc(-c2nc(CS(=O)CC(=O)N3CCN(c4ccc(F)cc4)CC3)c(C)o2)cc1` (stereo not drawn) belongs inactive: -30.2%.
On to `CCc1ccccc1NC(=O)C(CC)Oc1ccccc1-c1nnc(-c2ccccc2)o1` (stereo not drawn), for which the “activity change, positive = activation” value is inactive: -13.2%.
In the case of `O=C(Nc1ccc(C(=O)OCc2cc(=O)n3nc(C4CC4)sc3n2)cc1)c1cccc(Cl)c1` it was inactive: 8.45%.
In the case of `CCOC(=O)CCCN1C(=O)CCn2nc(-c3cn(C)c4ccccc34)cc21` it was inactive: -4.08%; in that of `CCCCN(Cc1ccccc1)S(=O)(=O)c1cc(Br)cc2c1N(C(C)=O)CC2`, inactive: -0.93%; in that of `COc1ccc(C(=O)Nc2c(C(=O)c3ccc(F)cc3)oc3ccccc23)cc1`, inactive: 3.66%.
Turning to `CCc1cccc(C)c1NC(=O)C1CCN(S(=O)(=O)c2cccc3nonc23)CC1`, the “activity change, positive = activation” value was inactive: -24.3%.
In the case of `O=C1CC(c2ccc(Cl)cc2)c2cc3c(cc2N1)OCCO3` (stereo not drawn), the “activity change, positive = activation” value is inactive: -28.8%.
In the case of `COc1ccc(-c2nc3c(c(SCC(=O)Nc4ccccc4OC)n2)Cc2cccc(C)c2O3)cc1`, the “activity change, positive = activation” value was inactive: 17.2%.
Consider `CCOc1ccc(CNC(=O)c2cccn2-c2nnc(N3CCCCC3)s2)cc1OC`, for which the “activity change, positive = activation” value is inactive: -15.1%.
For the compound `CCOCCCNC(=O)c1cc(=O)[nH]c2ccc(S(=O)(=O)N3CCCC3)cc12`, the “activity change, positive = activation” value was inactive: -12%.
Regarding `CCCCC(=O)Nc1c(C(=O)N2CCN(c3ccccc3)CC2)oc2ccccc12`, the “activity change, positive = activation” value was inactive: -23%.
In the case of `CCCSc1ncc(Cl)c(C(=O)Nc2scc(-c3ccc(C)cc3)c2C(=O)OCC)n1`, the “activity change, positive = activation” value is inactive: -6.48%.
As to `O=C1NC(=O)[C@@]2(CCOc3ccc(F)cc32)N1`, the “activity change, positive = activation” value is inactive: -10.4%.
